# The BET-seq Pho4 binding data (Le et al. 2018)
# This is one part of the list. These are noisy estimates, calculated here from bound and input reads.
# Molecular target: T1, Pho4 (S. cerevisiae) (UniProt P07270)
# T1 sequence: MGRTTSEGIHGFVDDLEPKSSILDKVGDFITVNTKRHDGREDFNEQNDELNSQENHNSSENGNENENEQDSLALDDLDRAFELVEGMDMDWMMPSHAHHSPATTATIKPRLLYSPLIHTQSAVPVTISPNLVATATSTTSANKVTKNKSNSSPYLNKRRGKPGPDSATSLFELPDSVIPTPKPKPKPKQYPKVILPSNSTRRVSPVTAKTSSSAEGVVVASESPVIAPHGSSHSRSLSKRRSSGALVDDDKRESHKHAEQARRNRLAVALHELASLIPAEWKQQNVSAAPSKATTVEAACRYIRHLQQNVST
# Assay: relative binding free energy (BET-seq); higher = weaker binding
# Settings: reference: library average
row,Sequence,relative binding free energy
1,ACGGGCACGTGGGGGA,-0.13 kcal/mol
2,TTTGGCACGTGGAATT,-0.06 kcal/mol
3,GGGGGCACGTGCTGTC,-0.19 kcal/mol
4,TGATACACGTGGCTGG,-0.05 kcal/mol
5,CTAAGCACGTGTGTGT,-0.03 kcal/mol
6,TTTTACACGTGAGGGG,0.4 kcal/mol
7,TTTGTCACGTGAGACG,0.32 kcal/mol
8,GGATCCACGTGGGGTG,-0.19 kcal/mol
9,ATTGACACGTGTATTG,0.04 kcal/mol
10,CGGGTCACGTGAGCTT,0.33 kcal/mol
11,TTGTTCACGTGCAGCT,0.18 kcal/mol
12,CGCGTCACGTGGTGTA,-0.04 kcal/mol
13,TAGTACACGTGGAGGG,0.12 kcal/mol
14,GGTAACACGTGGTGTA,-0.12 kcal/mol
15,GTGATCACGTGTAGGG,0.05 kcal/mol
16,TCTGTCACGTGCAGTG,0.14 kcal/mol
17,GAAGGCACGTGTGAAT,0.08 kcal/mol
18,TATGTCACGTGAGTAT,0.24 kcal/mol
19,GATGGCACGTGCGGAG,-0.06 kcal/mol
20,GTTACCACGTGTGGTA,0 kcal/mol
21,GCGTTCACGTGGGGGC,0.22 kcal/mol
22,CGGAACACGTGTGAGG,0.06 kcal/mol
23,TGAGCCACGTGGATTG,0.06 kcal/mol
24,TTCTGCACGTGGGTCA,-0.16 kcal/mol
25,AATTACACGTGACTTG,0.3 kcal/mol
26,TGCTTCACGTGAGGTG,0.35 kcal/mol

row,Sequence,relative binding free energy
1,GATAGCACGTGTCGTG,-0.08 kcal/mol
2,TCTGACACGTGTTGTA,0.01 kcal/mol
3,CATGTCACGTGGTGAT,0.06 kcal/mol
4,TTTTTCACGTGCTCGA,0.26 kcal/mol
5,TTTGCCACGTGTAGAG,-0.11 kcal/mol
6,CGTTACACGTGGGAGG,0.07 kcal/mol
7,AAGGGCACGTGGTGTC,-0.11 kcal/mol
8,TGCAACACGTGGAGGG,-0.2 kcal/mol
9,AGTAGCACGTGAGTAG,0.08 kcal/mol
10,TTGCGCACGTGGCATG,-0.26 kcal/mol
11,CGTGTCACGTGCGAGG,-0.05 kcal/mol
12,ACAGGCACGTGGATGT,-0.11 kcal/mol
13,TTAGTCACGTGTCGGT,0.05 kcal/mol
14,AGTGGCACGTGCGGTA,-0.32 kcal/mol
15,GATGGCACGTGGAGTT,0.04 kcal/mol
16,TAGGCCACGTGTTGGG,-0.01 kcal/mol
17,CTAGACACGTGTGGGT,0.14 kcal/mol
18,CTTTTCACGTGCGTAT,0.21 kcal/mol
19,GTGTACACGTGACTTT,0.22 kcal/mol
20,AGGAGCACGTGGGGTT,-0.24 kcal/mol
21,TGCGTCACGTGTTTAG,0.03 kcal/mol
22,GTGCGCACGTGGTGTC,-0.24 kcal/mol
23,GGTAGCACGTGTAAAA,0.15 kcal/mol
24,TTTCACACGTGTGCGT,0.05 kcal/mol
25,ATAGTCACGTGAAGTT,0.32 kcal/mol
26,TATGTCACGTGTTAAG,0.12 kcal/mol

row,Sequence,relative binding free energy
1,GATAGCACGTGTAAGG,0.03 kcal/mol
2,AAACTCACGTGGTAGG,0.2 kcal/mol
3,TAGCGCACGTGGAGAT,0.03 kcal/mol
4,GTATACACGTGGTTTA,-0.14 kcal/mol
5,TGTAGCACGTGGAAAG,0.03 kcal/mol
6,TTTAACACGTGACGGG,0.12 kcal/mol
7,ATTGACACGTGGCAGG,-0.12 kcal/mol
8,GTATACACGTGTGTCT,0 kcal/mol
9,TGGGGCACGTGCGCAT,-0.19 kcal/mol
10,GGTTACACGTGATACG,0.24 kcal/mol
11,GTAGGCACGTGAACTT,0.24 kcal/mol
12,TTCGGCACGTGCGTTG,0.03 kcal/mol
13,GTATGCACGTGCCGGT,-0.17 kcal/mol
14,GTTTGCACGTGTAGTT,0.05 kcal/mol
15,TGAGCCACGTGTTTTT,-0.03 kcal/mol
16,CGTATCACGTGGCGTT,0.05 kcal/mol
17,TGGCTCACGTGTGATA,0.24 kcal/mol
18,TGTTTCACGTGCGTGA,0.18 kcal/mol
19,TGCGTCACGTGTGCTG,0.07 kcal/mol
20,GAGTGCACGTGTTGAT,-0.07 kcal/mol
21,ACGTGCACGTGTGGAT,0 kcal/mol
22,CTTTTCACGTGAATAT,0.41 kcal/mol
23,GGTGTCACGTGGGAAT,0.23 kcal/mol
24,TTGCTCACGTGTAATT,0.24 kcal/mol
25,GGTTACACGTGTATCT,0.12 kcal/mol
26,ATTATCACGTGGGTGG,-0.02 kcal/mol

row,Sequence,relative binding free energy
1,TGGATCACGTGTGGTA,0.22 kcal/mol
2,TGGTTCACGTGTGTCA,0.15 kcal/mol
3,CGTTACACGTGTCGTG,0.09 kcal/mol
4,ATGTACACGTGATTGT,0.06 kcal/mol
5,TGTTTCACGTGTTGGT,0.24 kcal/mol
6,CTGTCCACGTGTTTTG,0.04 kcal/mol
7,TATAGCACGTGGTCTT,-0.13 kcal/mol
8,TGCTTCACGTGGGCGT,0.13 kcal/mol
9,CTGGCCACGTGGGGCT,-0.27 kcal/mol
10,TATAACACGTGGTGCT,-0.07 kcal/mol
11,GATGCCACGTGGGATG,0.05 kcal/mol
12,AGGAACACGTGGTAGG,-0.04 kcal/mol
13,TAGTTCACGTGCTTTA,0.2 kcal/mol
14,GGACTCACGTGTTGGA,0.25 kcal/mol
15,TTTAGCACGTGATGTA,0.05 kcal/mol
16,TGGGTCACGTGTTCGT,0.12 kcal/mol
17,AAGGACACGTGGTGAG,0.19 kcal/mol
18,GTTATCACGTGGGTTT,0.13 kcal/mol
19,CTTTGCACGTGGTTAG,-0.05 kcal/mol
20,CATGGCACGTGTATTG,-0.07 kcal/mol
21,AGGGGCACGTGGCGAA,-0.16 kcal/mol
22,GAGCGCACGTGGTGAG,-0.04 kcal/mol
23,ATCAGCACGTGAAGGG,0.16 kcal/mol
24,ACGATCACGTGTGGGC,0.25 kcal/mol
25,ATGCGCACGTGTCAGT,0.03 kcal/mol
26,AGCGTCACGTGGGCGT,-0.26 kcal/mol

row,Sequence,relative binding free energy
1,GGTAGCACGTGTTACG,0.06 kcal/mol
2,AAGGTCACGTGGGGAC,-0.01 kcal/mol
3,GTAGACACGTGCTGGT,-0.04 kcal/mol
4,ATCAGCACGTGGTGCG,-0.14 kcal/mol
5,GGTAGCACGTGAGTGA,0.14 kcal/mol
6,GTTAGCACGTGAATTG,0.25 kcal/mol
7,TTAGACACGTGTTGGC,0.16 kcal/mol
8,TGTCACACGTGTTGTT,0 kcal/mol
9,ACAGTCACGTGTTTGT,-0.01 kcal/mol
10,CGTTTCACGTGTCGGA,0.28 kcal/mol
11,ATTGTCACGTGCGGTA,0.01 kcal/mol
12,TTTGCCACGTGTTAGA,-0.06 kcal/mol
13,GTGGTCACGTGCATTG,0.14 kcal/mol
14,TCATTCACGTGGTTGG,0.28 kcal/mol
15,CGCGTCACGTGGTATG,0.02 kcal/mol
16,TCGTTCACGTGGTAGC,0.32 kcal/mol
17,TATGACACGTGAGGGT,0.18 kcal/mol
18,GCTAGCACGTGTGTTG,0.06 kcal/mol
19,GGACACACGTGGGTGG,-0.1 kcal/mol
20,CGGTGCACGTGTTAAT,-0.03 kcal/mol
21,GTGTACACGTGAAGAT,0.15 kcal/mol
22,TGCGGCACGTGTCGGA,-0.18 kcal/mol
23,TTAAGCACGTGGTACT,-0.15 kcal/mol
24,CGTGACACGTGCTGGT,-0.1 kcal/mol
25,TTAGCCACGTGAGGGA,0.16 kcal/mol
26,GTTTGCACGTGGGTCG,-0.13 kcal/mol

row,Sequence,relative binding free energy
1,GTCAGCACGTGAGGCG,0.18 kcal/mol
2,AGGTCCACGTGCGTTG,-0.07 kcal/mol
3,AAGTACACGTGATTGG,0.12 kcal/mol
4,TGCTTCACGTGTAAGG,0.21 kcal/mol
5,GGTTTCACGTGAGGGA,0.34 kcal/mol
6,GTATTCACGTGCGGGA,0.29 kcal/mol
7,TGGCTCACGTGATGAT,0.33 kcal/mol
8,GGGTCCACGTGGGTAT,-0.08 kcal/mol
9,TGTATCACGTGATAAT,0.27 kcal/mol
10,TTTTGCACGTGTGTAT,0.01 kcal/mol
11,TGGTGCACGTGCTATG,0 kcal/mol
12,TTAGACACGTGTGATG,0.1 kcal/mol
13,GGTTACACGTGGTCTT,0.2 kcal/mol
14,ATAGACACGTGTTCGT,0.02 kcal/mol
15,ATCTGCACGTGTTTGA,-0.05 kcal/mol
16,TATAGCACGTGTTGGT,-0.04 kcal/mol
17,CGGGGCACGTGACGGT,-0.02 kcal/mol
18,GTGTACACGTGCCGTG,0.03 kcal/mol
19,TTATTCACGTGCGGAG,0.11 kcal/mol
20,GTTTGCACGTGGAGTG,0.02 kcal/mol
21,GAAAGCACGTGATGTA,0.14 kcal/mol
22,GTTGGCACGTGCGGCC,0 kcal/mol
23,GACTGCACGTGAGGGG,0.23 kcal/mol
24,TTGGGCACGTGTGTCG,-0.03 kcal/mol
25,TCTGTCACGTGGGTCT,-0.05 kcal/mol
26,TTTCACACGTGTGGAG,0.18 kcal/mol

row,Sequence,relative binding free energy
1,CATATCACGTGCTGGT,0.16 kcal/mol
2,GGGCTCACGTGAGCGT,0.3 kcal/mol
3,ATTGGCACGTGCGGGG,-0.18 kcal/mol
4,CTTAGCACGTGATGGT,0.04 kcal/mol
5,TTATACACGTGGTGGG,0.01 kcal/mol
6,GTAATCACGTGTGGTT,0.26 kcal/mol
7,TGCGTCACGTGGAATT,0.19 kcal/mol
8,TGTTTCACGTGCGCGA,0.32 kcal/mol
9,AATGTCACGTGGAGCT,0.11 kcal/mol
10,TTGGCCACGTGTTGGG,-0.04 kcal/mol
11,TTTGACACGTGTCTTG,-0.06 kcal/mol
12,ATTTACACGTGTGACG,0.18 kcal/mol
13,TAGGGCACGTGGTTTT,-0.14 kcal/mol
14,TTTTACACGTGTAGGA,-0.06 kcal/mol
15,TGTGACACGTGTACGG,0.13 kcal/mol
16,AGTTACACGTGTCAGT,0.08 kcal/mol
17,CGCGTCACGTGTCGGG,0.19 kcal/mol
18,GGGCACACGTGGGCGT,-0.14 kcal/mol
19,CTGGGCACGTGCATTG,-0.1 kcal/mol
20,GACATCACGTGGGGTT,-0.01 kcal/mol
21,TGTGGCACGTGTCGAT,-0.02 kcal/mol
22,TTTAGCACGTGCCGGT,-0.04 kcal/mol
23,ATCGGCACGTGGAGTT,-0.08 kcal/mol
24,TCGGTCACGTGGGTGT,-0.07 kcal/mol
25,GGGGCCACGTGGAATG,-0.01 kcal/mol
26,GGCGGCACGTGCGGGG,-0.22 kcal/mol

row,Sequence,relative binding free energy
1,GCTTACACGTGGGAGG,0.09 kcal/mol
2,TGTTACACGTGTAAAG,0.21 kcal/mol
3,ACCTTCACGTGGTGGG,0.2 kcal/mol
4,TTCTACACGTGGATTT,0.17 kcal/mol
5,GTTAGCACGTGGGTAT,-0.21 kcal/mol
6,TCTGACACGTGGGTAT,-0.2 kcal/mol
7,TGGCACACGTGTTTTG,0.05 kcal/mol
8,GTCGTCACGTGCGGAG,0.06 kcal/mol
9,TTAGTCACGTGGGGTG,0 kcal/mol
10,TTTTGCACGTGGTCAG,-0.09 kcal/mol
11,GGGGTCACGTGGGGGG,0.08 kcal/mol
12,TTGAGCACGTGGTCGA,-0.18 kcal/mol
13,CATTGCACGTGTTGTA,0.05 kcal/mol
14,AGATGCACGTGTGAAT,0.21 kcal/mol
15,TATGTCACGTGAACGT,0.26 kcal/mol
16,TTCTTCACGTGATAGT,0.19 kcal/mol
17,TGTGACACGTGTAAGG,0.19 kcal/mol
18,CGTATCACGTGTTTTA,0.03 kcal/mol
19,TGCGGCACGTGTATTT,-0.07 kcal/mol
20,TGGGGCACGTGATTGA,-0.02 kcal/mol
21,TGTTTCACGTGCGGAG,0.12 kcal/mol
22,GTGCTCACGTGTTGTC,0.3 kcal/mol
23,GTGCGCACGTGAGCGG,0.11 kcal/mol
24,TTAGACACGTGTCGGT,-0.08 kcal/mol
25,TAGGACACGTGAAGGG,0.25 kcal/mol
26,TGCTTCACGTGGATAT,0.33 kcal/mol

row,Sequence,relative binding free energy
1,TAATTCACGTGGTCGT,0.24 kcal/mol
2,TACGTCACGTGGTGGT,0.03 kcal/mol
3,TAGGGCACGTGATTCT,-0.02 kcal/mol
4,GATTCCACGTGTGGGG,0.16 kcal/mol
5,ATGTGCACGTGAGCAT,0 kcal/mol
6,AAGTTCACGTGGGGGC,0.32 kcal/mol
7,GTTTTCACGTGTGAAA,0.46 kcal/mol
8,GCTTTCACGTGGGGTC,0.2 kcal/mol
9,TCAGTCACGTGTGAGT,0.11 kcal/mol
10,TAAATCACGTGGTTTT,0.12 kcal/mol
11,GGGCACACGTGAGGGG,0.24 kcal/mol
12,GGGTCCACGTGAGGCG,0.28 kcal/mol
13,GAGTGCACGTGATGTT,0.22 kcal/mol
14,CGTGGCACGTGCGGCT,-0.26 kcal/mol
15,TTTAACACGTGGGGAC,-0.04 kcal/mol
16,TAAGACACGTGGTGCG,0.03 kcal/mol
17,TGTCACACGTGGAATG,0.04 kcal/mol
18,AGTTTCACGTGCGAGA,0.34 kcal/mol
19,TGAGTCACGTGCTCGT,0.26 kcal/mol
20,AATCTCACGTGGTGTA,0.03 kcal/mol
21,GGACGCACGTGGGGTT,-0.28 kcal/mol
22,CATGCCACGTGTTTTT,0 kcal/mol
